Results: PubChem BioAssay AID1347073 (National Center for Advancing Translational Sciences (NCATS), 2019)
The whole screen tested about 45,000 compounds, of which about 200 (0.44%) were called active. Inconclusive results (about 7%) are left out. Calls come from the whole dose curve; as a rule, active = well fitted activation curve with a large enough effect; inconclusive = small, poorly fitted or top-dose-only effect; inactive = no such curve, though single readings can be large or run the other way. Some of the results follow.

Test: qHTS of TDP-43 Inhibitors: NCGC Sytravon Library Screen; note: 0% is about no effect; nearly all actives have a fitted effect of over 55% in size
Details: yeast TDP-43 toxicity rescue, BacTiter-Glo growth, 24 h; series mostly up to 46.1 µM; growth rescue (activation): at the top concentration
Summary of the method: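 TDP-43-expressing yeast, pregrown in raffinose, seeded at OD600 0.02 in galactose medium with compound for 24 hr at 30 deg C. Growth read by BacTiter-Glo luminescence, so rescue of toxicity appears as activation.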

| Compound | growth rescue (activation) |
| --- | --- |
| Cc1ccc(NC(=O)CSc2ncn[nH]2)cc1S(=O)(=O)N1CCOCC1 | inactive: -5.45% |
| Cc1cc(C)n(-c2ccccc2[N+](=O)[O-])n1 | inactive: -9.96% |
| C/C(Cl)=C\Cn1c(NCCCn2ccnc2)nc2c1c(=O)n(C)c(=O)n2C | inactive: 9.35% |
| COc1ccccc1-c1nc(C#N)c(N2CCN(C(c3ccccc3)c3ccccc3)CC2)o1 | inactive: -7.48% |
| Cc1ncoc1C(=O)N1CCCC(CCC(=O)NCc2ccc(F)c(F)c2)C1 (stereo not drawn) | inactive: 10.8% |
| CCOc1ccccc1NC(=O)CCCn1cc([N+](=O)[O-])cn1 | inactive: 23.8% |
| COc1ccccc1/C=C/C(=O)NCC(=O)N/N=C/c1ccc(C)o1 | inactive: -4.71% |
| COC(=O)c1ccc(C(=O)OC)c(NC(=O)/C=C/C(=O)O)c1 | inactive: 18.7% |
| CC(C)(C)/C(O)=C/c1nc2cc(Cl)ccc2oc1=O | inactive: 5.03% |
| COc1ccc(N2CCN(C(=O)Cn3nnc(-c4ccccc4N)n3)CC2)cc1 | inactive: 4.5% |
| O=C(CC1CCCC1)Nc1ccc(Cl)c(S(=O)(=O)N2CCOCC2)c1 | inactive: 1.83% |
| O=C(CCSc1ccc(Br)cc1)Nc1cccnc1 | inactive: 3.45% |
| O=C(Nc1ccccc1)/C(=C/c1ccc(O)cc1)NC(=O)c1ccco1 | inactive: 7.43% |
| CN(Cc1ccccc1)C(=O)c1ccc2nc([C@H]3C[C@H](O)[C@@H](CO)O3)[nH]c2c1 | inactive: -0.844% |
| FC(F)(F)C1CCCN(c2nsc3ccccc23)C1 (stereo not drawn) | inactive: -92.9% |
| CCOc1ccccc1NC(=O)COc1ccc2ccc(=O)oc2c1 | inactive: 5.09% |
| CC(C)CCNC(=O)CO/N=C/c1ccccc1OC(F)F | inactive: 5.28% |
| Fc1cccc(Cl)c1COc1ccc(-c2nnco2)cc1 | inactive: 9.28% |
| COC(=O)C1=C(C)NC2=C(C(=O)CCC2)C1c1coc2ccccc2c1=O (stereo not drawn) | inactive: -18.9% |
| O=C(CN1C(=O)NC(Cc2c[nH]c3ccccc23)C1=O)Nc1cccc(S(=O)(=O)N2CCCCCC2)c1 (stereo not drawn) | inactive: -8.56% |
| O=C(Nc1ccc(S(=O)(=O)N2CCCCC2)cc1)C1CCN(C(=O)c2ccco2)CC1 | inactive: 2.21% |
| C=CCNC(=O)c1c(Cl)cnn1-c1ccc(C)cc1 | inactive: 10.3% |

| Compound | growth rescue (activation) |
| --- | --- |
| CC(=O)NCCNc1nc2cc(-c3ccsc3)sc2c(=O)n1C | inactive: -4.79% |
| COc1ccc(NCC(=O)Nc2ccc(Br)cc2F)c(OC)c1 | inactive: 6.01% |
| NC(=O)c1nn(Cc2ccccc2)c(=O)c2ccccc12 | inactive: 0.0092% |
| CCC(C)c1ccccc1NC(=O)COC(=O)CCc1cc(OC)c(OC)c(OC)c1 (stereo not drawn) | inactive: 8.39% |
| Fc1ccccc1N1CCN(c2ncnc3[nH]ncc23)CC1 | inactive: 21% |
| O=C(Nc1nnc(SCc2ccc(F)cc2)s1)C1Cc2ccccc2CN1C(=O)c1ccco1 (stereo not drawn) | inactive: -6.6% |
| O=C(NCCCn1ccnc1)c1ccc(Cl)cc1 | inactive: 1.57% |
| O=C(NCCc1c[nH]c2ccccc12)N[C@@H](Cc1ccccc1)C(=O)O | inactive: 3.14% |
| Cc1cccc(CN2CCN(Cc3cccc4nonc34)CC2CCO)n1 (stereo not drawn) | inactive: -0.189% |
| Cc1c(-c2ccccc2)n[nH]c1C(=O)N=Nc1c(O)[nH]c2ccccc12 | inactive: 5.33% |
| O=C(Nc1ccc(Cl)cn1)c1ccc(Br)c(S(=O)(=O)N2CCCCC2)c1 | inactive: 12.4% |
| COc1ccc(NC(=O)C2C3C=CC4(O3)C2C(=O)N(CCN2CCCCC2)C4C(=O)NC2CCCC(C)C2C)cc1 (stereo not drawn) | inactive: -16% |
| O=C(COc1ccc(Cl)cc1Br)N1CCN(c2ccccc2)CC1 | inactive: 23.6% |
| N#CC(C(=O)NCc1ccccc1)c1nc2ccccc2nc1N1CCCC1 (stereo not drawn) | inactive: -1.99% |
| O=S(=O)(Nc1cc(Sc2cccc3cccnc23)c(O)c2ccccc12)c1ccc(F)cc1 | inactive: 7.11% |
| Cc1ccc(S(=O)(=O)N2CCN(C(=O)NCc3ccc(F)cc3)CC2)c(C)c1 | inactive: -4.61% |
| COc1ccc(OC)c(S(=O)(=O)Nc2c(C)cccc2C)c1 | inactive: 9.48% |
| O=C(CC1C(=O)NCCN1CC(c1ccccc1)c1ccccc1)NC1CC1 (stereo not drawn) | inactive: -17.8% |
| Cc1ccc(NC2CCCN(C(=O)CN3C(=O)CSC3=O)C2)cc1C (stereo not drawn) | inactive: 14.7% |
| O=C(NCc1ccccn1)C1CCCN(S(=O)(=O)c2cc(Cl)ccc2Cl)C1 (stereo not drawn) | inactive: -10.5% |
| CCN(CC)CCNC(=S)Nc1ccc(Cl)cc1 | inactive: 21.1% |
| CCCSc1ncc(Cl)c(C(=O)N(Cc2ccc(Cl)cc2)Cc2ccco2)n1 | inactive: 7.58% |

| Compound | growth rescue (activation) |
| --- | --- |
| O=C(COC(=O)Cc1cccs1)Nc1cc(S(=O)(=O)N2CCOCC2)ccc1Cl | inactive: 2.65% |
| CCCOC(=O)c1ccc(Oc2cn[nH]c2-c2ccc(OC)cc2O)cc1 | inactive: -92.6% |
| CC(=O)Nc1ccc(NC(=O)COC(=O)c2c(C)nn(-c3ccccc3)c2C)cc1 | inactive: 12.9% |
| O=C1c2cccc3cc(Br)cc(c23)C(=O)N1Nc1ccc(Br)cc1 | inactive: 9% |
| Cc1ccc(/C=C(\NC(=O)c2ccccc2)C(=O)N2CCCC2C(=O)O)cc1 (stereo not drawn) | inactive: -4.91% |
| Cc1ccccc1C(=O)NC(=S)Nc1ccc(Cc2ccncc2)cc1 | inactive: 16.6% |
| O=C(NC1=NCCS1)c1ccc(Cl)c(Cl)c1 | inactive: 29.6% |
| C/C(CCc1ccccc1)=N\NC(=S)NCCc1ccccc1 | inactive: 0.135% |
| Cc1ccc(S(=O)(=O)NC(C)C(=O)N2CCOCCOCCOCC2)cc1 (stereo not drawn) | inactive: 6.38% |
| COc1ccc(-c2csc(NC(=O)C3=NN(c4ccccc4)C(=O)CC3)n2)cc1 | inactive: 3.23% |
| N#CCC(=O)Nc1ccc(C(=O)OCc2ccccc2Oc2ccccc2)cc1 | inactive: 33.9% |
| Cc1nn(Cc2ccccc2)c(C)c1NC(=O)CCC(=O)O | inactive: -20.6% |
| O=C1COc2ccc(S(=O)(=O)N3CCCC3)cc2N1 | inactive: 2.91% |
| COc1ccc(CC(=O)NNc2ncnc3c2cnn3-c2ccccc2)cc1 | inactive: 0.861% |
| COc1ccccc1N(CC(=O)NCCSCc1ccco1)S(=O)(=O)c1ccccc1 | inactive: -5.4% |
| CSc1ccc(C(=O)NC2CCSc3ccccc32)cc1 (stereo not drawn) | inactive: -29.2% |
| Cc1ccc(-c2nnc3c4ccccc4c(C)nn23)cc1NC(=O)c1ccccc1 | inactive: -0.64% |
| CC(=O)c1ccc(NC(=O)COC(=O)C2CCN(S(=O)(=O)c3cccs3)CC2)cc1 | inactive: -5.86% |
| CCCC(=O)N1CCC1(C)C(=O)Nc1ccc(OC)c(OC)c1 (stereo not drawn) | inactive: 13.8% |
| CN1C(=O)/C(=C\C=C2/CCCN2C)N(C)C1=S | inactive: -2.07% |
| CCOC(=O)c1cc(C(=O)OCC)c(=O)[nH]c1C | inactive: 8.59% |
| O=C(Nc1ccc(OC(F)(F)F)cc1)c1noc2c1CCCC2 | inactive: 25.2% |

| Compound | growth rescue (activation) |
| --- | --- |
| CCOc1ccccc1C(=O)NC(C(=O)NCc1ccccc1OC)C(C)C (stereo not drawn) | inactive: -0.433% |
| COc1ccccc1C(=O)N/N=C(\C)CC(=O)Nc1ccccn1 | inactive: -7.68% |
| CCCCNC(=O)C1CC(=O)N(CCc2ccc(C)cc2)C1 (stereo not drawn) | inactive: 3.62% |
| N=C1C(c2nc(-c3ccc(F)cc3)cs2)=C(O)CN1CCCN1CCOCC1 | inactive: 7.63% |
| Cc1ccc2c(c1)C1CN(C)CCC1N2C(=O)c1ccccc1NS(=O)(=O)c1ccc(F)cc1 (stereo not drawn) | inactive: -1.89% |
| CC(NC(=O)COC(=O)c1ccc[nH]c1=O)c1ccccc1 (stereo not drawn) | inactive: -1.88% |
| c1csc(-c2nc(N3CCOCC3)c3ccccc3n2)c1 | inactive: 10.7% |
| CCN1CCCC1Cn1cnc2c([nH]c3ccc(OC)cc32)c1=O (stereo not drawn) | inactive: 23.8% |
| O=[N+]([O-])c1cccc(C([O-])=C(C(=S)Nc2cccc3ccccc23)[n+]2ccccc2)c1 | inactive: -3.74% |
| O=C(COC(=O)/C=C/c1ccco1)Nc1ccc(F)cc1Cl | inactive: 5.83% |
| CCC1(C)Cc2ccccc2-c2[nH]c(=S)[nH]c(=O)c21 (stereo not drawn) | inactive: 7.32% |
| NS(=O)(=O)c1ccc(NC(=O)COc2ccc(S(=O)(=O)N3CCCC3)cc2)cc1 | inactive: 5.59% |
| Cc1ccc(NC2CCCN(C(=O)c3cc(C(C)C)[nH]n3)C2)cc1C (stereo not drawn) | inactive: 11.3% |
| O=C(Cn1ccc2ccccc2c1=O)NCC(=O)Nc1ccc(F)cc1F | inactive: 17.3% |
| O=C(Nc1ccc(S(=O)(=O)NCC2CCCO2)cc1)c1cnccn1 (stereo not drawn) | inactive: -1.53% |
| Cc1ccc(S(=O)(=O)N2CCOCC2)cc1NC(=O)CNC1CCCC1 | inactive: 7.76% |
| CCCS(=O)(=O)c1cn2cccc(N)c2c1S(=O)(=O)CCC | inactive: 17.9% |
| Cc1cc(Cl)ccc1NC(=O)CN1C(=O)NC2(CCCC2)C1=O | inactive: 6.78% |
| Cc1cc(NS(=O)(=O)c2ccc(NC(=O)CSc3nc4sc(C)c(C)c4c(=O)[nH]3)cc2)no1 | inactive: -5.24% |
| O=C(OCc1nc2ccccc2[n+]([O-])c1C(=O)c1ccccc1)c1cccs1 | inactive: 20.1% |
| Cc1nn(-c2ccccc2)c(C)c1NC(=O)COc1ccc(F)cc1Cl | inactive: -17.8% |
| Cc1cc(C(=O)COC(=O)c2ccco2)c(C)n1Cc1ccco1 | inactive: -1.89% |

| Compound | growth rescue (activation) |
| --- | --- |
| CCn1c(Cc2ccccc2)nnc1SCc1ccc([N+](=O)[O-])cc1 | inactive: 15.7% |
| Cc1cc(C)c(S(=O)(=O)NCCc2cc3ccc(C)c(C)c3[nH]c2=O)c(C)c1 | inactive: 2.15% |
| NNc1nccc(Nc2ccccc2C(=O)O)n1 | inactive: -11% |
| O=C(c1ccc(Cl)cc1Cl)N1CCC(C(=O)N2CCOCC2)CC1 | inactive: 6.56% |
| COc1ccc(CC(N)c2csc(NC(=O)NCc3ccccc3)n2)cc1 (stereo not drawn) | inactive: 10.3% |
| O=C(Oc1cccc(C(=S)N2CCOCC2)c1)c1ccccc1 | inactive: 25.4% |
| CCOC(=O)c1cc(-c2cccc([N+](=O)[O-])c2)on1 | inactive: -1.76% |
| COc1ccccc1-n1cnnc1SCC(=O)Nc1cccc(S(N)(=O)=O)c1 | inactive: 0.617% |
| CCOCCCNC(=S)N1CCN(C(=O)C(=O)Nc2ccc(C(=O)OC)cc2)CC1 | inactive: 20% |
| COc1ccc(CN2CCNC(=O)C2CC(=O)N2CCc3ccccc3C2)c(OC)c1 (stereo not drawn) | inactive: -15.5% |
| Cc1ccc(CNC(=O)CN2C(=O)NC3(CCCC3)C2=O)cc1 | inactive: -4.78% |
| C=CCn1c(-c2cccc(S(=O)(=O)N(CC)CC)c2)n[nH]c1=S | inactive: -2.1% |
| NNC(=O)CNS(=O)(=O)c1ccc([N+](=O)[O-])cc1 | inactive: -7.26% |
| Cc1ccc(N/C=C/C(=O)c2cccs2)cc1C | inactive: -8.8% |
| NS(=O)(=O)c1ccc(CCNC(=O)CNC(=O)c2ccccc2Br)cc1 | inactive: 8.42% |
| COC(=O)N/N=C/c1cc(Br)ccc1O | inactive: 10.2% |
| Cn1c(CC(=O)Nc2ccccc2Cl)nnc1SCC(=O)Nc1nncs1 | inactive: -7.02% |
| COc1ccc(NS(=O)(=O)c2ccc(NS(=O)(=O)c3cccs3)cc2)cc1 | inactive: 11.8% |
| CS(=O)(=O)Nc1cccc(-c2cc(NC=O)c3ncc(-c4ccc(F)c(Cl)c4)n3c2)c1 | inactive: 7.32% |
| O=C(NCc1ccccc1Cl)C1CCN(C(=O)c2ccco2)CC1 | inactive: -6.75% |
